Inconclusive means that the source gave no clear call. Such entries were picked first, then a sample of the others. For some assays here: A potency beside an inconclusive call is a rough fit, not a confirmed value. Some compounds were tested as several samples or in several runs, with calls that do not always agree. Activity calls are given as the source filed them. Unless noted, calls come from the whole dose curve; as a rule, active = well fitted curve in the direction sought with a large enough effect in the repeat runs; inconclusive = weak or mixed curves; inactive = no such curve, though single readings can be large; an effect the other way counts as inactive or inconclusive.
Key:
[1] = qHTS assay to identify small molecule agonists of the hypoxia (HIF-1) signaling pathway (AID 1224846; active = well fitted activation curve with a large enough effect in the signal ratio in the repeat runs, not every such curve was filed as active; inconclusive = weak or mixed curves; the % refers to the signal ratio; note: potency is the fitted concentration of half-maximal effect; for activation: % is set by controls: 0 for no effect and ±100 for the full control effect); settings: HRE-bla ME-180 cells, beta-lactamase ratio, 17 h; activation: at 76.8 µM (top of the series) unless noted
Method in brief: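 Cell line: CellSensor HRE-bla ME-180; 2,000 cells/well; 0.5% dialyzed FBS; 5 h preincubation; DMSO compound pin transfer; 17 h, 37C, 5% CO2; CCF4-AM added; bla FRET signal scored for activation.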

[2] = qHTS assay to identify small molecule antagonists of the estrogen related receptor (ERR) signaling pathway from Tox21 library (AID 1224848); settings: ERR reporter cell line, luciferase antagonist mode, 18 h; series mostly up to 92.4 µM; note: nearly all actives have a fitted effect of over 50% in size; note: potency is the fitted concentration of half-maximal effect
Method in brief: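 Cells: ERR line, 2,000/well; 6 h preincubation 37 C/5% CO2. Cpd in DMSO via pin tool; 18 h, 37 C. ONE-Glo, 30 min RT, luminescence.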

[3] = qHTS RealTime-Glo MT Cell Viability Assay in HEK293 cells - 16 hour (AID 1224872); settings: RealTime-Glo luminescence; series mostly up to 76.8 µM; note: nearly all actives have a fitted effect of over 50% in size; note: potency is the fitted concentration of half-maximal effect
Method in brief: (§1)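 Luminescence generated by NanoLuc from substrate produced by living HEK293 cells served as the viability signal. Each value reflects the reading at its stated time point during continuous 40 h compound exposure at 37 C.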

[4] = qHTS RealTime-Glo MT Cell Viability Assay in HepG2 cells - 8 hour (AID 1224873); settings: RealTime-Glo luminescence; series mostly up to 76.8 µM; note: nearly all actives have a fitted effect of over 55% in size; note: potency is the fitted concentration of half-maximal effect
Method in brief: (§2)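 HepG2 cells mixed with RealTime-Glo MT reagents (NanoLuc plus cell-permeant prosubstrate) were seeded at 600 cells/well, incubated 5 h at 37 C/5% CO2, then pinned with compounds in DMSO; nonlytic luminescence tracked viability during 40 h treatment.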

[5] = qHTS assay to identify small molecule agonists of H2AX - cell viability counter screen (AID 1224847; calls by dose curve; note: nearly all actives have a fitted effect of over 30% in size; note: potency is the fitted concentration of half-maximal effect); settings: CHO-K1 viability, CellTiter-Glo luminescence, 3 h; series mostly up to 154 µM
Method in brief: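 For this counter screen, overnight-attached CHO-K1 cells received test compounds (15 concentrations, 0.76% DMSO final); 3 hr later at 37C, CellTiter-Glo reagent was added and luminescence recorded after 30 min at room temperature.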

[6] = A CellTox Green Cytotoxicity Assay to monitor cytotoxicity in HEK293 cells - 32 hour (AID 1224881); settings: CellTox Green fluorescence; series mostly up to 76.8 µM; note: potency is the fitted concentration of half-maximal effect; nearly all actives have a fitted effect of over 40% in size
Method in brief: (§3)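 Nonlytic real-time cytotoxicity: HEK293 + CellTox Green reagent plated, 5 h preincubation, pintool compound addition (23 nL in DMSO), 37 C for 40 h, fluorescence measured at successive time points.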

[7] = qHTS RealTime-Glo MT Cell Viability Assay in HepG2 cells - 24 hour (AID 1224867); settings: RealTime-Glo luminescence; series mostly up to 76.8 µM; note: potency is the fitted concentration of half-maximal effect; nearly all actives have a fitted effect of over 50% in size
Method in brief: (§4)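 Tox21 10K library screened in qHTS format on HepG2 cells carrying RealTime-Glo reagents. Compounds were added after a 5 h preincubation, and the luminescent signal from continuous culture was measured repeatedly during 40 h treatment.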

[8] = qHTS RealTime-Glo MT Cell Viability Assay in HEK293 cells - 32 hour (AID 1224868); settings: RealTime-Glo luminescence; series mostly up to 76.8 µM; note: nearly all actives have a fitted effect of over 50% in size; note: potency is the fitted concentration of half-maximal effect
Method in brief: as §1

[9] = qHTS RealTime-Glo MT Cell Viability Assay in HepG2 cells - 40 hour (AID 1224870); settings: RealTime-Glo luminescence; series mostly up to 76.8 µM
Method in brief: as §2

[10] = A CellTox Green Cytotoxicity Assay to monitor cytotoxicity in HEK293 cells - 40 hour (AID 1224871); settings: CellTox Green fluorescence; series mostly up to 76.8 µM; note: nearly all actives have a fitted effect of over 45% in size; note: potency is the fitted concentration of half-maximal effect
Method in brief: as §3

[11] = A CellTox Green Cytotoxicity Assay to monitor cytotoxicity in HEK293 cells - 24 hour (AID 1224875); settings: CellTox Green fluorescence; series mostly up to 76.8 µM; note: potency is the fitted concentration of half-maximal effect; nearly all actives have a fitted effect of over 45% in size
Method in brief: as §3

[12] = qHTS RealTime-Glo MT Cell Viability Assay in HepG2 cells - 32 hour (AID 1224877); settings: RealTime-Glo luminescence; series mostly up to 76.8 µM; note: potency is the fitted concentration of half-maximal effect; nearly all actives have a fitted effect of over 55% in size
Method in brief: as §4

[13] = qHTS RealTime-Glo MT Cell Viability Assay in HEK293 cells - 0 hour (AID 1224880); settings: RealTime-Glo luminescence; series mostly up to 76.8 µM; note: potency is the fitted concentration of half-maximal effect; nearly all actives have a fitted effect of over 45% in size
Method in brief: (§5)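 Cells were seeded together with NanoLuc luciferase and a prosubstrate that viable cells reduce to a luciferase substrate. After a 5 h incubation at 37 C/5% CO2, compounds were added and luminescence was measured repeatedly during 40 h of treatment.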

[14] = qHTS RealTime-Glo MT Cell Viability Assay in HEK293 cells - 40 hour (AID 1224874); settings: RealTime-Glo luminescence; max response: stronger effect = lower value
Method in brief: as §5

[15] = qHTS assay to identify small molecule agonists of the estrogen related receptor (ERR) signaling pathway from Tox21 library (AID 1224849; calls by dose curve; note: % is set by controls: 0 for no effect and ±100 for the full control effect; nearly all actives have a fitted effect of over 15% in size); settings: ERR reporter cell line, ONE-Glo luciferase, 18 h; at 92.4 µM (top of the series) unless noted
Method in brief: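 ERR cells, 6 h pre-incubation 37 C/5% CO2; cpd in DMSO pinned; 18 h 37 C; ONE-Glo added, 30 min RT; luminescence read. Agonist mode, qHTS.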

[16] = A CellTox Green Cytotoxicity Assay to monitor cytotoxicity in HepG2 cells - 24 hour (AID 1224878); settings: CellTox Green fluorescence; series mostly up to 76.8 µM; note: nearly all actives have a fitted effect of over 45% in size; note: potency is the fitted concentration of half-maximal effect; for Cytotoxicity: % is set by controls: 0 for no effect and ±100 for the full control effect
Method in brief: (§6)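 Read-out is fluorescence of a cyanine dye excluded from live cells that stains DNA of dead HepG2 cells, with signal proportional to cytotoxicity. Plates were read at 0, 8, 16, 24, 32 and 40 h after compound addition.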

[17] = A CellTox Green Cytotoxicity Assay to monitor cytotoxicity in HepG2 cells - 40 hour (AID 1224879); settings: CellTox Green fluorescence; series mostly up to 76.8 µM; note: potency is the fitted concentration of half-maximal effect; nearly all actives have a fitted effect of over 40% in size
Method in brief: as §6

[18] = A CellTox Green Cytotoxicity Assay to monitor cytotoxicity in HepG2 cells - 16 hour (AID 1224876); settings: CellTox Green fluorescence; series mostly up to 76.8 µM
Method in brief: as §6

[19] = A CellTox Green Cytotoxicity Assay to monitor cytotoxicity in HEK293 cells - 0 hour (AID 1224869); settings: CellTox Green fluorescence; series mostly up to 76.8 µM
Method in brief: as §3
Tags give direction and shape of the fitted curve or compound fluorescence and quenching.

CC(C)C1=CC2=CC[C@@H]3[C@](C)(CCC[C@@]3(C)C(=O)O)[C@H]2CC1
Potency [1]: inconclusive: 34.7 µM [rising, partial curve, poor fit]
Potency [2]: inconclusive: 48.6 µM [inhibitor]
Potency [3]: inactive
Potency [4]: inactive

NC(=O)c1ccccc1[N+](=O)[O-]
Potency [1]: inactive
Potency [5]: inactive
Potency [6]: active: 1.78 µM

CN1CCC(Nc2ncc3ncnc(Nc4ccc(F)c(Cl)c4)c3n2)CC1
Potency [1]: active: 8.49 µM
Potency [2]: inconclusive: 29.8 µM [inhibitor, single point]
Potency [7]: inconclusive: 23.9 µM [falling, single point]
Potency [8]: active: 10.7 µM
Potency [9]: inconclusive: 26.8 µM [falling, single point]
Potency [10]: inconclusive: 26.8 µM [activator, single point]
Potency [3]: inconclusive: 3.01 µM [cytotoxic, full curve]
Potency [11]: inconclusive: 26.8 µM [activator, single point]
Potency [12]: inconclusive: 26.8 µM [cytotoxic, single point]
Potency [13]: inconclusive: 26.8 µM [rising, single point]
Potency [6]: inconclusive: 26.8 µM [activator, single point]

COc1c(C)c2c(c(O)c1C/C=C(\C)CCC(=O)OCCN1CCOCC1)C(=O)OC2
Potency [1]: inactive
Potency [2]: inactive
Potency [10]: inactive
Potency [14]: inconclusive: 9.52 µM [cytotoxic, full curve]

CCCOc1ccc2c(c1)CC[C@@H]1[C@@H]2CC[C@]2(C)C(OC)CC[C@@H]12 (stereo partly drawn)
Potency [1]: inconclusive: 13.4 µM [falling, partial curve]
Potency [5]: inconclusive: 27.7 µM [cytotoxic, partial curve]
Potency [10]: inactive

CC(c1cc(C(C)(C)C)cc(C(C)(C)C)c1O)c1cc(C(C)(C)C)cc(C(C)(C)C)c1O
Potency [1]: inactive
Potency [2]: inconclusive: 30.6 µM [inhibitor, full curve, poor fit]
Potency [8]: inconclusive: 19.5 µM [cytotoxic, partial curve]
Potency [3]: inconclusive: 19.5 µM [cytotoxic, partial curve, poor fit]

CC(C)N=C=NC(C)C
Potency [1]: inactive
activity change, positive = activation [15]: inactive: 2.53%

Cc1ccc([N+](=O)[O-])c(C)c1
Potency [1]: inconclusive: 4.9 µM [full curve]
Potency [2]: active: 12.2 µM and inactive
Potency [16]: inconclusive: 17.4 µM [activator, partial curve]
Potency [17]: active: 17.4 µM

NC(=O)Nc1nc2ccccc2[nH]1
Potency [1]: inactive
Potency [5]: inconclusive: 126 µM [cytotoxic, partial curve, poor fit]
Potency [10]: inconclusive: 61.2 µM [activator, single point]
Potency [11]: inconclusive: 61.2 µM [activator, single point]
Potency [6]: inconclusive: 61.2 µM [activator, single point]

Cc1cccc(CN2CCN(C(c3ccccc3)c3ccc(Cl)cc3)CC2)c1 (stereo not drawn)
Potency [1]: inconclusive: 26.8 µM [falling, partial curve]
Potency [5]: inconclusive: 6.19 µM [cytotoxic, full curve]
Potency [8]: inactive
Potency [10]: inactive
Potency [16]: inactive

CC1(C)[C@@H](O)CC[C@]2(C)[C@H]3C(=O)C=C4[C@@H]5C[C@@](C)(C(=O)O)CC[C@]5(C)CC[C@@]4(C)[C@]3(C)CC[C@@H]12
Potency [1]: inconclusive: 61 µM [falling, single point]
Potency [5]: inconclusive: 112 µM [cytotoxic, partial curve]
Potency [8]: inactive
Potency [16]: inconclusive: 54.3 µM [activator, partial curve, poor fit]
Potency [17]: inconclusive: 61 µM [activator, partial curve, poor fit]

Cc1cccc(N(C)C(=S)Oc2ccc3c(c2)C2CCC3C2)c1 (stereo not drawn)
Potency [1]: inconclusive: 26.8 µM [falling, single point]
Potency [5]: inconclusive: 34.8 µM [cytotoxic, partial curve]
Potency [18]: inactive

O=c1c(-c2ccccc2)c1-c1ccccc1
Potency [1]: inconclusive: 7.56 µM [falling, full curve]
Potency [2]: active: 8.41 µM
Potency [7]: active: 16.9 µM
Potency [4]: active: 23.9 µM
Potency [14]: active: 10.7 µM
Potency [11]: active: 5.35 µM
Potency [6]: active: 5.35 µM

CCCCCc1ccc(O)cc1
Potency [1]: inconclusive: 54.9 µM [falling, single point]
Potency [5]: active: 89.8 µM
Potency [8]: inconclusive: 38.9 µM [cytotoxic, partial curve, poor fit]
Potency [19]: inactive
Potency [3]: inconclusive: 30.9 µM [cytotoxic, partial curve]
Potency [14]: inconclusive: 34.7 µM [cytotoxic, partial curve, poor fit]
Potency [11]: active: 38.9 µM
Potency [6]: active: 34.7 µM

Source: PubChem BioAssay (Tox21)
